Results reported in the supplement of paper PMC12217912.
Some of the results follow. The full chains were built here from the parent and the listed change. Values near 0.05 are background.

B1: TEV protease; numbered along this chain (parent)
chain: MGESLFKGPRDYNPISSSICHLTNESDGHTTSLYGIGFGPFIITNKHLFRRNNGTLVVQSLHGVFKVKDTTTLQQHLVDGRDMIIIRMPKDFPPFPQKLKFREPQREERICLVTTNFQTKSMSSMVSDTSCTFPSGDGIFWKHWIQTKDGQCGSPLVSTRDGFIVGIHSASNFTNTNNYFTSVPKNFMELLTNQEAQQWVSGWRLNADSVLWGGHKVFMVKPEEPFQPVKEATQL

Variants of: B1
Experiment: raw area under fraction-flipped curve 0-4 h after induction (AUC4h, not background-subtracted), DNA-recorder readout of cleavage of the substrate (dimensionless); higher = more cleavage of the substrate by the protease variant
Settings: temperature: 34 °C; time window: 0-4 h after rhamnose induction
Method: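 In vivo DNA recorder in E. coli TOP10(DE3) ΔrhaA at 34 °C. Each TEVp single-site mutant (parent TEVp 0) is paired with a single-site variant of the 7-mer TEVs (canonical ENLYFQ|S). The substrate sits between flexible linkers in a Bxb1-sfGFP-TEVs-SsrA fusion, so cleavage stabilises Bxb1 and speeds flipping of a recombination array, read by NGS. The value is the raw area under the fraction-flipped curve over 0-4 h after rhamnose induction (AUC4h), with ≥20 reads per time point. It is not background-subtracted; inactive controls average about 0.047.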
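Further: Bxb1 expression induced with 0.2% (w/v) L-rhamnose at OD600 near 0.5, cultures sampled hourly, flipped fraction per protease–substrate barcode pair counted by paired-end Illumina sequencing.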

Variant | area with substrate ENLYAQS | area with substrate ENLYGQS | area with substrate ENLYHQS | area with substrate ENLYIQS | area with substrate ENLYKQS | area with substrate ENLYLQS | area with substrate ENLYPQS | area with substrate ENLYQQS | area with substrate ENLYRQS | area with substrate ENLYSQS | area with substrate ENLYTQS | area with substrate ENLYVQS | area with substrate ENLYCQS | area with substrate ENLYDQS | area with substrate ENLYEQS | area with substrate ENLYMQS | area with substrate ENLYNQS | area with substrate ENLYWQS | area with substrate ENLYYQS
M122I | 0.0519 | 0.0685 | 0.0735 | 0.12 | 0.0645 | 0.07 | 0.0828 | 0.0182 | 0.064 | 0.0621 | 0.0751 | 0.128 | – | – | – | – | – | – | –
S123N | 0.0677 | 0.067 | 0.071 | 0.135 | 0.061 | 0.0783 | – | 0.0757 | – | 0.0639 | 0.0969 | 0.138 | 0.102 | 0.0644 | 0.0529 | 0.0857 | 0.0727 | 0.0872 | 0.0544
V126C | 0.095 | – | 0.0684 | 0.127 | 0.0541 | – | 0.0638 | – | – | – | – | – | – | 0.0714 | – | – | 0.0901 | – | –
V126I | 0.0716 | 0.0638 | 0.074 | – | – | 0.0677 | 0.0753 | 0.0588 | – | – | – | 0.111 | – | 0.0629 | 0.0636 | 0.0753 | 0.0709 | 0.0706 | –
S127I | 0.0987 | 0.0633 | 0.078 | 0.167 | 0.0485 | 0.0801 | 0.0748 | – | 0.063 | 0.0726 | 0.0815 | 0.0736 | – | – | 0.0714 | 0.0994 | 0.0724 | – | 0.0604
S127L | 0.0824 | 0.0669 | 0.059 | 0.13 | 0.0653 | – | 0.0665 | 0.112 | – | 0.0719 | 0.0642 | 0.1 | – | – | 0.0907 | – | – | 0.111 | –
F133M | 0.099 | 0.068 | 0.081 | 0.118 | – | – | 0.0798 | 0.0956 | – | 0.0765 | 0.109 | 0.166 | – | 0.0693 | – | 0.129 | 0.0562 | 0.0926 | –
P134Q | 0.0567 | – | 0.0728 | 0.117 | – | – | 0.0621 | – | 0.0625 | – | – | 0.119 | – | – | 0.0774 | 0.0654 | 0.0821 | – | –
S135N | 0.0282 | 0.0563 | 0.0613 | 0.0686 | – | – | 0.0624 | 0.0665 | 0.0524 | 0.069 | – | 0.0922 | 0.0803 | 0.057 | 0.0558 | – | 0.0542 | 0.058 | –
G136D | 0.0695 | – | 0.0788 | – | 0.0748 | 0.0687 | 0.0674 | – | 0.0558 | 0.0736 | 0.061 | 0.12 | 0.0959 | 0.0593 | 0.0597 | 0.0597 | 0.061 | 0.0611 | 0.0583
I139V | 0.0725 | 0.0777 | 0.0711 | 0.11 | 0.0589 | 0.139 | 0.073 | 0.0475 | 0.0558 | 0.0841 | – | 0.127 | 0.0741 | 0.0669 | 0.0679 | 0.0849 | 0.0657 | – | 0.056
H143G | 0.0701 | 0.0623 | 0.0465 | 0.0824 | 0.0588 | 0.0699 | 0.077 | – | – | 0.0567 | 0.062 | 0.111 | – | 0.0575 | 0.0718 | – | – | 0.0801 | 0.0585
T147M | 0.0726 | 0.0588 | 0.0652 | – | – | – | – | – | 0.0534 | 0.0761 | – | 0.0866 | – | – | 0.0687 | 0.0646 | – | 0.0594 | –
K148C | 0.0703 | 0.0624 | 0.0565 | 0.11 | 0.0581 | 0.0855 | 0.0575 | – | 0.0682 | – | 0.0925 | 0.0888 | 0.0682 | 0.0712 | 0.0706 | 0.0829 | 0.0646 | 0.0781 | 0.078
D149T | 0.0671 | 0.0707 | 0.065 | 0.0587 | 0.0664 | 0.0685 | 0.0624 | 0.066 | 0.0614 | 0.0732 | 0.0742 | 0.103 | 0.0782 | 0.0616 | 0.0661 | 0.0687 | 0.0652 | – | 0.067
Q151N | 0.0712 | 0.0617 | 0.0661 | 0.0895 | 0.062 | 0.0588 | 0.0653 | 0.0562 | 0.0596 | – | – | 0.0703 | – | 0.0602 | 0.0551 | – | 0.0558 | 0.0695 | 0.0573
Q151T | 0.0614 | 0.07 | 0.0578 | – | – | – | 0.0605 | 0.0439 | 0.0618 | 0.0655 | – | 0.115 | – | 0.05 | 0.08 | 0.0871 | 0.0708 | 0.0856 | 0.0698
Q151Y | 0.0764 | 0.0615 | 0.0764 | 0.0776 | 0.0732 | – | 0.0594 | – | 0.0763 | – | 0.0715 | 0.0903 | – | 0.064 | 0.0425 | 0.068 | 0.0697 | 0.0603 | 0.0623
P155I | 0.0867 | – | 0.0568 | 0.0617 | 0.0604 | – | 0.0522 | 0.0694 | 0.0527 | – | 0.0461 | 0.0845 | 0.0614 | 0.0429 | 0.0595 | 0.0749 | – | 0.0632 | 0.0534
L156R | 0.049 | 0.0463 | 0.0489 | 0.0444 | 0.0325 | – | 0.0447 | 0 | 0.0379 | 0.0463 | 0.0386 | – | – | – | 0.0608 | 0.0523 | 0.0307 | 0.0502 | –
V157E | 0.0595 | 0.0465 | 0.0619 | – | 0.0376 | – | 0.0527 | – | 0.0479 | – | – | 0.0572 | – | 0.0469 | 0.0529 | 0.0509 | 0.0499 | 0.0555 | –
S158Y | 0.0632 | 0.049 | 0.0518 | 0.0456 | 0.0427 | – | 0.0426 | 0.052 | 0.0579 | 0.0511 | – | 0.0608 | – | 0.053 | – | 0.0429 | – | – | –
T159I | 0.054 | 0.0844 | 0.0782 | 0.125 | 0.0164 | 0.0821 | 0.0695 | 0.056 | 0.0636 | 0.0761 | – | 0.123 | – | 0.0551 | 0.0524 | – | 0.0912 | 0.0871 | 0.0782
R160W | 0.058 | – | – | – | 0.0772 | – | 0.0877 | – | 0.0636 | – | 0.1 | – | 0.0597 | – | 0.0796 | 0.106 | – | 0.103 | –
G162L | 0.0864 | 0.0753 | 0.0686 | – | 0.0539 | – | 0.0623 | – | 0.0622 | – | 0.0528 | 0.0888 | 0.0878 | – | 0.0664 | 0.0853 | 0.0575 | 0.0638 | 0.0479
G162R | 0.0763 | 0.0537 | 0.0521 | 0.109 | 0.0436 | 0.0751 | 0.0675 | 0.041 | 0.0609 | – | – | 0.0727 | 0.0745 | – | 0.0603 | 0.0749 | 0.0597 | – | 0.0544
